The values that follow come from publication PMC11043394.

Chains of the proteins cited; added tags and fusions are not shown.
UniProt P51812: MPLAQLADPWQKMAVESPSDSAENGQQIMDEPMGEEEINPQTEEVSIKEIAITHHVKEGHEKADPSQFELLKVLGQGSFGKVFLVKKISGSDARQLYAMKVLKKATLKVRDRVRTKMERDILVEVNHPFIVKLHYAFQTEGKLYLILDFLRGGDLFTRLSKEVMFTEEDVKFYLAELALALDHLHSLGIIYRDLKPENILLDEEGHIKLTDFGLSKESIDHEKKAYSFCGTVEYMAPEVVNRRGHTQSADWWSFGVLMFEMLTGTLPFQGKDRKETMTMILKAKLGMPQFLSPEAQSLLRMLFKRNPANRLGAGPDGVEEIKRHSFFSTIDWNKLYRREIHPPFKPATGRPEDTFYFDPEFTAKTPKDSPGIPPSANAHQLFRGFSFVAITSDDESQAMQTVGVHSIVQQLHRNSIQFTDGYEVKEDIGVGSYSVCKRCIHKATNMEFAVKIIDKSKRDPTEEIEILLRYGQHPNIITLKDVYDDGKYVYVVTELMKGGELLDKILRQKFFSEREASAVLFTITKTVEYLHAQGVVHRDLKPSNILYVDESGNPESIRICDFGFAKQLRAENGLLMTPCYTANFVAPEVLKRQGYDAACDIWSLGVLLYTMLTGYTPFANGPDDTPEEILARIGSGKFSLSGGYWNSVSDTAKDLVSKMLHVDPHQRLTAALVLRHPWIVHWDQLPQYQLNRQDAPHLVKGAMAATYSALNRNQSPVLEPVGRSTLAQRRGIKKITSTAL
UniProt P18654: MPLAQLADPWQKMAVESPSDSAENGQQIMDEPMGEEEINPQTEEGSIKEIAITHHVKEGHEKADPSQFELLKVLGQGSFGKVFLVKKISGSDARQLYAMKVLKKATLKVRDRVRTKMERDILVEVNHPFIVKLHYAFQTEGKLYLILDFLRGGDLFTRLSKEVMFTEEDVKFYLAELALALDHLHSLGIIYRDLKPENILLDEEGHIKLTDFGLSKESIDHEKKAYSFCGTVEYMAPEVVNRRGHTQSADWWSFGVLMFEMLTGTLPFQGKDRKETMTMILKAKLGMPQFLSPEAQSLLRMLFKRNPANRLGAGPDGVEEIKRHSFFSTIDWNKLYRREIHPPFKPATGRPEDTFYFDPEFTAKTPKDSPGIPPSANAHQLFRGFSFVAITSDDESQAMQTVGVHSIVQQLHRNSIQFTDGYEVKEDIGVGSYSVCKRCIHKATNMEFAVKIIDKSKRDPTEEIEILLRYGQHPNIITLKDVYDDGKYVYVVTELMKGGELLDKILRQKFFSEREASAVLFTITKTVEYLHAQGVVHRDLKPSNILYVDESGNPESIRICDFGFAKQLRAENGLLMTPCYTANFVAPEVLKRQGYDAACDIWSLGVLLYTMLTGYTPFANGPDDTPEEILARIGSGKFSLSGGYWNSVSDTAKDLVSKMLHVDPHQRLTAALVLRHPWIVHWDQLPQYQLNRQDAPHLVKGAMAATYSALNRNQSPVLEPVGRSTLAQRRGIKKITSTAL

These are yes or no findings as the source states them, for the method shown. Binding seen in cells or lysates may run through a third protein. Some binding calls cover weakened binding; strength is not graded here. For some assays here: Sequences can lack the tags named with a protein.

Experiment [1] concerns the target HA-RSK2 (p90 ribosomal S6 kinase 2) (UniProt P51812). The experiment can be described thus: co-IP; HEK293T lysates (200 µg) transiently expressing HA-RSK2 and a Flag-FOXO construct; NP-40 lysis buffer (50 mM Tris-HCl pH 8.0, 120 mM NaCl, 0.5% NP-40); HA-antibody beads overnight at 4 °C; NETN wash; Western blot. Background: Immunoblotting shows a protein as a band on a membrane.

The target in experiment [2] is GST-RSK2 (UniProt P51812). The experiment can be described thus: pull-down; GST-RSK2 from E. coli bound to glutathione beads; cell lysates transiently expressing Flag-FOXO1 or Flag-FOXO4; ex vivo pull-down, Western blot with Flag-specific antibodies; only the target purified.
Experiment [3] concerns the target GST-FOXO4 (UniProt P98177). The experiment can be described thus: pull-down; GST-FOXO4 from E. coli on GST-sepharose beads; B16F10 cell lysate; bound endogenous RSK2 seen by Western blot (ex vivo pull-down); only the target purified.

As for “Flag-FOXO4 deletion mutant to residue 180 (FOXO4 1-180) (from UniProt P98177 1-180) (domain or fragment)”, the binding result in experiment [1] is given as “binds”.

In the case of “Flag-FOXO4-wt (forkhead box protein O4, from pCS2 + N-Flag-FOXO4) (from UniProt P98177 1-505)”, the binding entry in experiment [1] and in experiment [2] was “binds” throughout.

For “endogenous RSK2 of B16F10 mouse melanoma cells (from UniProt P18654 1-740) (enzyme)”, in experiment [3], the binding result is reported as “binds”.

B1: Flag-FOXO4-1-100 (domain or fragment, UniProt P98177 1-100)
chain: MDPGNENSATEAAAIIDLDPDFEPQSRPRSCTWPLPRPEIANQPSEPPEVEPDLGEKVHTEGRSEPILLPSRLPEPAGGPQPGILGAVTGPRKGGSRRNA
B1: the binding entry in experiment [1] is “no binding”.
